Consider three molecules from paper PMC6443190, “Regulation of anthocyanin accumulation via MYB75/HAT1/TPL-mediated transcriptional repression” (PLoS Genetics, 2019).

Results are given in words; binding and its absence hold for the method and conditions named. For some assays here: Binding seen in cells or lysates may run through a third protein. Some results given as binding are weak or reduced against the parent protein; the word gives no strength. Where a sequence is shown, tags or fusion partners need not be part of it.

Test [1] addresses T1, MBP-EGL3 (Arabidopsis thaliana, UniProt Q9CAD0 1-596).
T1 construct: EGL3, Arabidopsis thaliana, At1g63650; pMAL-C2X
T1 sequence (looked up): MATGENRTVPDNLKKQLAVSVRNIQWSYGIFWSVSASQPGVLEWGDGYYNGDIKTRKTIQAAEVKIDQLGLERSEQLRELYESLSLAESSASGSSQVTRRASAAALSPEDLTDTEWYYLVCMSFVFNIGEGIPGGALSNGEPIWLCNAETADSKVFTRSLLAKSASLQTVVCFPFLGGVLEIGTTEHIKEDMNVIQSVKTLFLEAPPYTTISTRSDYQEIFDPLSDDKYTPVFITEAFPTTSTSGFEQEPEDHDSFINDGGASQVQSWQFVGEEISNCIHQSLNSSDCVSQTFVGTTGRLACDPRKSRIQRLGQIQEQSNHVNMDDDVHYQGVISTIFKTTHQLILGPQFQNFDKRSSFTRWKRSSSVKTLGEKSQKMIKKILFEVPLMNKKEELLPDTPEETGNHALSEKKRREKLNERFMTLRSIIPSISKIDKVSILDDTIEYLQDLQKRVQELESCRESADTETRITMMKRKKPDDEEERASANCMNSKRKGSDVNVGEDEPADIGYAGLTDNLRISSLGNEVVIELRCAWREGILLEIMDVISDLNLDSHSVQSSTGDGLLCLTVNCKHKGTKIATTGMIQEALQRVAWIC
The experiment in a line: pull-down; semi-in vivo: MBP-TT8 or MBP-EGL3 beads added to lysate of Col-0 or 35S:HAT1 protoplasts expressing HA-MYB75; 4 C, 3 h; anti-HA blot; only the target purified.

The target in test [2] is T2, MBP-TT8 (Arabidopsis thaliana, UniProt Q9FT81 1-518).
T2 construct: TT8, Arabidopsis thaliana, At4g09820; pMAL-C2X
T2 sequence (looked up): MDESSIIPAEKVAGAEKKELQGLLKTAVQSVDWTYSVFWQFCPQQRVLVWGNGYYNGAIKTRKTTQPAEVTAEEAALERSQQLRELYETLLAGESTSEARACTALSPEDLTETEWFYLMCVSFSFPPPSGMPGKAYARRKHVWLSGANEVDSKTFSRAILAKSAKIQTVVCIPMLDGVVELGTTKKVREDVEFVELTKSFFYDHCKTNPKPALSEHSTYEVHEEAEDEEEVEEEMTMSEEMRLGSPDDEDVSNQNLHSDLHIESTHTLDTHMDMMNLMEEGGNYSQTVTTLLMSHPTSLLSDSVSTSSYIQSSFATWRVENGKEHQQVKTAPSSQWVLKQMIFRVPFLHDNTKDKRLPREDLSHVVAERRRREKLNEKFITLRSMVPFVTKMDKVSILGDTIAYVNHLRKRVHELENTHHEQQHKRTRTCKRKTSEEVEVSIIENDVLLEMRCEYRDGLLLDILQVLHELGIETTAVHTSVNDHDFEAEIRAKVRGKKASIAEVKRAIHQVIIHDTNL
The description is as above.

Test [3] has as its target T3, EGL3 (pBridge-EGL3-HAT1, yeast three-hybrid) (Arabidopsis thaliana) (UniProt Q9CAD0).
T3 sequence: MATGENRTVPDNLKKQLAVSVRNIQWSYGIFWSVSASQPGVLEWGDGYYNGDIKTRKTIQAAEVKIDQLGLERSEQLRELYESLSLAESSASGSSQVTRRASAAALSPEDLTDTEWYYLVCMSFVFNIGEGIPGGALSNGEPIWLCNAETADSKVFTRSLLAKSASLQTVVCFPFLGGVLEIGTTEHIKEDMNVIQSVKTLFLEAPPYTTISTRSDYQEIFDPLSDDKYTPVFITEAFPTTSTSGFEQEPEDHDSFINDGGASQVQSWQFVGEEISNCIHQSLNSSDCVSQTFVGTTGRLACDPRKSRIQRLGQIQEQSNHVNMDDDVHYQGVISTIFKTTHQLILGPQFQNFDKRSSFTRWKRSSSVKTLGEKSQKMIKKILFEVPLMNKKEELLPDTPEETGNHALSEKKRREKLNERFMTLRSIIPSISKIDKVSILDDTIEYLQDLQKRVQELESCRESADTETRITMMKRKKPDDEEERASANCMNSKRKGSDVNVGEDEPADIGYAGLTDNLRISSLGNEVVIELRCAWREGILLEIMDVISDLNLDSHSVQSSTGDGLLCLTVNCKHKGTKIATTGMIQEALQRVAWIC
The experiment in a line: two-hybrid; yeast three-hybrid: pGADT7-MYB75 with pBridge-TT8-HAT1 or pBridge-EGL3-HAT1; HAT1 under the Met-suppressible MET25 promoter; 200 uM down to 50 uM methionine.

In test [4] the target is T4, TT8 (pBridge-TT8-HAT1, yeast three-hybrid) (Arabidopsis thaliana) (UniProt Q9FT81).
T4 sequence: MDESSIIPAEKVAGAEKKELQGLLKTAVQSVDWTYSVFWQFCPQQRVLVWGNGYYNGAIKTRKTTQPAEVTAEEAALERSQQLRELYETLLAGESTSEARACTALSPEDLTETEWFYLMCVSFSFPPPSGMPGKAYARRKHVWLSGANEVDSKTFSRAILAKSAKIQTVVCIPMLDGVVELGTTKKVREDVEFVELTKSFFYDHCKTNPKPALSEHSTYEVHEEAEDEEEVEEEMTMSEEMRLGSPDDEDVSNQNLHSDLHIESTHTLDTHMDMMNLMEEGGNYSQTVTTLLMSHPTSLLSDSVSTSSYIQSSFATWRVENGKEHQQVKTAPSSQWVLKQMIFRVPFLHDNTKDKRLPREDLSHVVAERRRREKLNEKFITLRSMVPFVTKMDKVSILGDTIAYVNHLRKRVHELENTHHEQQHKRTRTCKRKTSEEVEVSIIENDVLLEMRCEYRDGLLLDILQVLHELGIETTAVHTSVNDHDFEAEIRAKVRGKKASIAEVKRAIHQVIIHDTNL
The description is as above.

Test [5] concerns the target T5, AD-MYB75 (pGADT7-MYB75, yeast three-hybrid) (Arabidopsis thaliana) (UniProt Q9FE25).
T5 sequence: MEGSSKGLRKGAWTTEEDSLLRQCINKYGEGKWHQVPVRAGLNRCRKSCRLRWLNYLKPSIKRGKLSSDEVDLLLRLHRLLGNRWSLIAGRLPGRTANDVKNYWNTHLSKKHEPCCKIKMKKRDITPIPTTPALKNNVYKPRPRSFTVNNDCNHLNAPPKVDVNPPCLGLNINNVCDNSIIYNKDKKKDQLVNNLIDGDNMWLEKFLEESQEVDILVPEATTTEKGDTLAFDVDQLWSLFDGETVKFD
The test is described as above.

B1: HA-MYB75 (protein, UniProt Q9FE25 1-248)
chain: MEGSSKGLRKGAWTTEEDSLLRQCINKYGEGKWHQVPVRAGLNRCRKSCRLRWLNYLKPSIKRGKLSSDEVDLLLRLHRLLGNRWSLIAGRLPGRTANDVKNYWNTHLSKKHEPCCKIKMKKRDITPIPTTPALKNNVYKPRPRSFTVNNDCNHLNAPPKVDVNPPCLGLNINNVCDNSIIYNKDKKKDQLVNNLIDGDNMWLEKFLEESQEVDILVPEATTTEKGDTLAFDVDQLWSLFDGETVKFD
Regarding B1, the binding entry in test [1] and in test [2] was “binds” throughout.

B2: AD-MYB75 (pGADT7-MYB75, yeast three-hybrid) (protein, UniProt Q9FE25 1-248)
chain: MEGSSKGLRKGAWTTEEDSLLRQCINKYGEGKWHQVPVRAGLNRCRKSCRLRWLNYLKPSIKRGKLSSDEVDLLLRLHRLLGNRWSLIAGRLPGRTANDVKNYWNTHLSKKHEPCCKIKMKKRDITPIPTTPALKNNVYKPRPRSFTVNNDCNHLNAPPKVDVNPPCLGLNINNVCDNSIIYNKDKKKDQLVNNLIDGDNMWLEKFLEESQEVDILVPEATTTEKGDTLAFDVDQLWSLFDGETVKFD
As for B2, the binding result in test [3] and in test [4] was “binds” throughout.

B3: HAT1 (expressed from the MET25 promoter of pBridge, yeast three-hybrid) (protein, UniProt P46600 1-282)
chain: MMMGKEDLGLSLSLGFAQNHPLQLNLKPTSSPMSNLQMFPWNQTLVSSSDQQKQQFLRKIDVNSLPTTVDLEEETGVSSPNSTISSTVSGKRRSTEREGTSGGGCGDDLDITLDRSSSRGTSDEEEDYGGETCRKKLRLSKDQSAVLEDTFKEHNTLNPKQKLALAKKLGLTARQVEVWFQNRRARTKLKQTEVDCEYLKRCVEKLTEENRRLEKEAAELRALKLSPRLYGQMSPPTTLLMCPSCERVAGPSSSNHNQRSVSLSPWLQMAHGSTFDVMRPRS
For the molecule B3, the binding result in test [5] is “binds”.
